Results taken from PubChem BioAssay AID651820 (National Center for Advancing Translational Sciences (NCATS), 2012).
The whole screen tested about 340,000 compounds, of which about 12,000 (3.5%) were called active. The shares of active, inactive and inconclusive entries below differ from those in the screen. Calls follow the shape of the dose curve; as a rule, active = well fitted inhibition curve with a large enough effect; inconclusive = small, poorly fitted or top-dose-only effect, or another doubt; inactive = no such curve, though single readings can be large or run the other way. No potency is given beside an inconclusive call; the fits are too rough.

Assay: qHTS Assay for Inhibitors of Hepatitis C Virus (HCV)
Settings: Huh7.5.1 HCVcc-Cre (HCVcc is cell-culture hepatitis C virus) infection, luciferase reporter, 44 h; activity change, negative = inhibition: at 41.8 µM (top of the series) unless noted
Procedure, shortened: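 A cell-based infection assay in which seeded cells (1,000 per well) receive test compound after 4 h, are inoculated with HCVcc-Cre at approximately 0.5 moi, and are incubated 44 h before luminescence detection.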
% is scaled to controls: 0 for no effect and ±100 for the full control effect; potency is read from the fitted curve at half-maximal effect; tags tell the direction and shape of the fitted curve.

SMILES | Potency | activity change, negative = inhibition
NNc1ncnc2scc(-c3ccc(Cl)cc3)c12 | inconclusive [inhibitor, single point] | 
O=C(/C=C/c1cccc(O)c1)c1cccnc1 |  | inactive: 7.27%
Cc1noc(C)c1S(=O)(=O)N1CCCC(C(=O)Nc2ccc(Cl)cn2)C1 (stereo not drawn) | inconclusive [inhibitor, single point] | 
Cc1cccc(N(C)S(=O)(=O)c2c(C)[nH]c(C)c2C(=O)N2CCCC2)c1 |  | inactive: 26.7%
CN(CCOc1ccccc1)CC(=O)Nc1ccc([N+](=O)[O-])cc1Cl | inconclusive [inhibitor, single point] | 
Cc1cccc(NC(=O)c2ccc(C3SCC(=O)N3CCc3ccccc3)cc2)c1C (stereo not drawn) | inconclusive [inhibitor, partial curve] | 
Cc1nc2ccccc2c2c1C(=O)N(C(C)C)C2=O | inconclusive [inhibitor, partial curve, poor fit] | 
COCCn1c(=NC(=O)c2ccc(S(=O)(=O)N3CCOCC3)cc2)sc2cc(S(N)(=O)=O)ccc21 | inconclusive [inhibitor, single point] | 
CC(=O)[C@@]1(O)CC[C@H]2[C@@H]3C[C@H](C)C4=CC(=O)CC[C@]4(C)[C@H]3CC[C@@]21C | inconclusive [inhibitor, single point] | 
O=c1cnnc(N/N=C/c2c[nH]c3ccccc23)[nH]1 |  | inactive: 15.1%
COc1ccccc1/C=C/C(=O)Nc1cccc(S(=O)(=O)NC2=NCCCCC2)c1 | inconclusive [inhibitor, single point] | 
CC(=O)Nc1cccc(C(=O)OC(C)C(=O)NCc2ccc3c(c2)OCO3)c1 (stereo not drawn) | inconclusive [inhibitor, single point] | 
Cc1ccc(S(=O)(=O)N2CCOCC2)cc1NC(=O)COc1ccc(C(=O)c2ccccc2)cc1 | active: 10 µM | 
COCCCn1c(N)c(C(=O)Nc2ccccc2)c2nc3ccccc3nc21 | inconclusive [inhibitor, partial curve] | 
CCN1CCN(S(=O)(=O)c2ccc(Cl)c(C(=O)N(CCc3ccccc3)Cc3ccccc3)c2)CC1 | active: 12.6 µM | 
Cc1cc(NC(=O)c2cccs2)no1 |  | inactive: -26.8%
CN(C)CCNc1ccc(Cl)cc1[N+](=O)[O-] |  | inactive: 4.37%
Cc1nn(Cc2ccccc2)c(Cl)c1C(=O)OC(C)C(=O)Nc1ccc(F)cc1Cl (stereo not drawn) | inconclusive [inhibitor, single point] | 
O=C(Nc1cccc(S(=O)(=O)NC2=NCCCCC2)c1)c1ccc(Cl)cc1 | inconclusive [inhibitor, partial curve] | 
CCCc1nnc(NC(=O)C2CCCO2)s1 (stereo not drawn) |  | inactive: -4.87%
CC(=O)Nc1ccc(C(=O)N2CCc3cc4c(cc3C2C)OCCCO4)cc1 (stereo not drawn) | inconclusive [inhibitor, partial curve, poor fit] | 
CN(CCC1CCOCC1)C(=O)CC1C(=O)NCCN1Cc1c(F)cccc1Cl (stereo not drawn) | inconclusive [inhibitor, single point] | 

SMILES | Potency | activity change, negative = inhibition
Cc1occc1C(=O)Nc1cccc([N+](=O)[O-])c1 |  | inactive: 20.1%
COc1ccccc1NC(=O)c1sc2nc(C)cc(C)c2c1N |  | inactive: 7.29%
O=C(Nc1cccnc1)c1cccc(S(=O)(=O)Nc2cccc(Cl)c2)c1 | inconclusive [inhibitor, single point] | 
CCC(=O)c1c[nH]c(C(=O)NCCCN2CCOCC2)c1 |  | inactive: 11.8%
Cc1nnc(SC(C)C(=O)Nc2ccc(N3CCOCC3)cc2)n1Cc1ccccc1 (stereo not drawn) | inconclusive [inhibitor, partial curve] | 
C#CCOCCOCCOCCNc1nc(N2CCN(C(=O)[C@H](Cc3ccc(O)cc3)n3cc(CCO)nn3)CC2)nc(N2CCN(C(=O)[C@H](Cc3ccc(O)cc3)n3cc(CCO)nn3)CC2)n1 |  | inactive: 10.4% [at 8.37 µM]
Cc1occc1C(=O)NNC(=O)NC12CC3CC(CC(C3)C1)C2 |  | inactive: 9.83%
O=C(CCCOc1ccc(Cl)cc1Cl)Nc1ccncc1 | inconclusive [inhibitor, partial curve] | 
Cn1cccc1CC(=O)N/N=C/c1cc([N+](=O)[O-])ccc1Cl | inconclusive [inhibitor, partial curve] | 
Cc1ccc(CNC(=O)CCc2ccc(S(=O)(=O)NCC(C)C)cc2)cc1 | inconclusive [inhibitor, single point] | 
NS(=O)(=O)c1ccc(CCNC(=O)CNCCc2ccc(C(F)(F)F)cc2)cc1 | inconclusive [inhibitor, single point] | 
CC(C)CN1CCC(=O)N([C@H](CSc2ccc(Br)cc2)c2ccccc2)CC1 | inconclusive [inhibitor, full curve, poor fit] | 
CCCN(Cc1nnc(-c2ccccc2Cl)o1)C(=O)c1cc(S(=O)(=O)N2CCOCC2)ccc1F | inconclusive [inhibitor, single point] | 
CCN1CCN(C(=S)Nc2ccsc2C(=O)OC)CC1 |  | inactive: -4.99%
O=C(CN1CCCCC1)N1CCCc2c1c(=O)oc1ccc(OCc3ccccc3)cc21 | inconclusive [inhibitor, full curve] | 
CCOc1cc2c(cc1OCC)-n1cccc1C(c1cc(C)c(OC)cc1C)NC2 (stereo not drawn) | inconclusive [inhibitor, single point] | 
N#CCCn1cc(/C=C2\NC(=S)N(c3ccccc3)C2=O)c(-c2ccc(-c3ccccc3)cc2)n1 |  | inactive: -29.9%
COCCn1c(CN2CCc3ccccc3C2)nc2c1c(=O)n(C)c(=O)n2C | inconclusive [inhibitor, single point] | 
CC(=O)N1CCN(C(=O)c2cc3ccccc3o2)CC1 | inconclusive [inhibitor, single point] | 
CCC(=O)Nc1ccc(C2=Nn3c(nnc3C(C)C)SC2)cc1 | inconclusive [inhibitor, single point] | 
COc1ccc(NC(=O)COc2coc(CN3c4ccccc4CC3C)cc2=O)cc1 (stereo not drawn) | inconclusive [inhibitor, full curve] | 
